Assay results reported in a collection of fitness landscapes (doi:10.1126/science.1257360).
The other results are listed elsewhere or left out.

B1: PhoQ; a variant is named by its letters at X, in order, P23837 (parent)
chain: MKKLLRLFFPLSLRVRFLLATAAVVLVLSLAYGMVALIGYSVSFDKTTFRLLRGESNLFYTLAKWENNKLHVELPENIDKQSPTMTLIYDENGQLLWAQRDVPWLMKMIQPDWLKSNGFHEIEADVNDTSLLLSGDHSIQQQLQEVREDDDDAEMTHSVAVNVYPATSRMPKLTIVVVDTIPVELKSSYMVWSWFIYVLSANLLLVIPLLWVAAWWSLRPIEALAKEVRELEEHNRELLNPATTRELTSLVRNLNRLLKSERERYDKYRTTLTDLTHSLKTPLXXLQXXLRSLRSEKMSVSDAEPVMLEQISRISQQIGYYLHRASMRGGTLLSRELHPVAPLLDNLTSALNKVYQRKGVNISLDISPEISFVGEQNDFVEVMGNVLDNACKYCLEFVEISARQTDEHLYIVVEDDGPGIPLSKREVIFDRGQRVDTLRPGQGVGLAVAREITEQYEGKIVAGESMLGGARMEVIFGRQHSAPKDE

Variants of: B1
Test: enrichment ratio after two sorts for PhoP signalling (ratio (wild type AVST 3.29)); higher = more functional
Conditions: with PhoP (E. coli)

Row | Variant | enrichment ratio
1 | TLSW | 2.4
2 | VILH | ≤ 0.25
3 | GRCW | ≤ 0.25
4 | VPIC | ≤ 0.25
5 | MPWM | ≤ 0.25
6 | HNVE | ≤ 0.25
7 | FCMN | 2.27
8 | ENKA | ≤ 0.25
9 | HADI | ≤ 0.25
10 | TWSG | ≤ 0.25
11 | WMCW | ≤ 0.25
12 | NWTP | ≤ 0.25
13 | GPVF | ≤ 0.25
14 | ILWA | ≤ 0.25
15 | FYNM | ≤ 0.25
16 | LHST | ≤ 0.25
17 | YQIQ | ≤ 0.25
18 | AAYP | ≤ 0.25
19 | TIVK | ≤ 0.25
20 | RKGG | ≤ 0.25
21 | NYIS | ≤ 0.25
22 | WGHL | ≤ 0.25
23 | HDKW | ≤ 0.25
24 | VLQC | ≤ 0.25
25 | AQVE | 34.1

Row | Variant | enrichment ratio
26 | YMNL | ≤ 0.25
27 | QGEL | ≤ 0.25
28 | SEPH | ≤ 0.25
29 | WIRF | ≤ 0.25
30 | PCSV | ≤ 0.25
31 | MNCS | ≤ 0.25
32 | GFCM | 1.87
33 | SHDT | ≤ 0.25
34 | PPET | ≤ 0.25
35 | HEGL | ≤ 0.25
36 | RICL | ≤ 0.25
37 | YASS | ≤ 0.25
38 | ECHA | ≤ 0.25
39 | GMYR | ≤ 0.25
40 | VCTQ | ≤ 0.25
41 | LVKD | ≤ 0.25
42 | QIMP | ≤ 0.25
43 | WNSM | ≤ 0.25
44 | LDEI | ≤ 0.25
45 | YCYS | ≤ 0.25
46 | IFMF | ≤ 0.25
47 | AMAR | 7.65
48 | IQQM | ≤ 0.25
49 | TEGA | ≤ 0.25
50 | LNGI | ≤ 0.25

Row | Variant | enrichment ratio
51 | WVMA | ≤ 0.25
52 | KQTY | ≤ 0.25
53 | ERCN | ≤ 0.25
54 | YAFI | ≤ 0.25
55 | GEHY | ≤ 0.25
56 | KFLA | ≤ 0.25
57 | MQFC | 0.266
58 | LARK | ≤ 0.25
59 | MHCD | ≤ 0.25
60 | PCGW | ≤ 0.25
61 | HYLH | ≤ 0.25
62 | SLET | ≤ 0.25
63 | LPVI | ≤ 0.25
64 | GIAW | 21.6
65 | SRCT | ≤ 0.25
66 | GIAD | ≤ 0.25
67 | VLIN | ≤ 0.25
68 | RFWH | ≤ 0.25
69 | ATNI | ≤ 0.25
70 | HFSC | ≤ 0.25
71 | TYDV | ≤ 0.25
72 | AQLF | 15.8
73 | PQCL | 0.411
74 | WICI | ≤ 0.25
75 | KSHA | ≤ 0.25

Row | Variant | enrichment ratio
76 | GHDY | ≤ 0.25
77 | RTHH | 1.43
78 | EVRY | ≤ 0.25
79 | HFWY | ≤ 0.25
80 | GDCT | 0.951
81 | RGQV | ≤ 0.25
82 | IDYF | ≤ 0.25
83 | AQNH | ≤ 0.25
84 | DKKG | ≤ 0.25
85 | NNCW | ≤ 0.25
86 | LNEH | ≤ 0.25
87 | DHNR | ≤ 0.25
88 | QSNL | 0.925
89 | RKLL | ≤ 0.25
90 | LFPC | ≤ 0.25
91 | ANGQ | ≤ 0.25
92 | LYDM | ≤ 0.25
93 | AEGR | ≤ 0.25
94 | GTVI | 1.54
95 | WDCF | ≤ 0.25
96 | MPYV | ≤ 0.25
97 | FRGT | ≤ 0.25
98 | EATY | ≤ 0.25
99 | TCKF | ≤ 0.25
100 | CFPI | ≤ 0.25

Row | Variant | enrichment ratio
101 | AWDR | ≤ 0.25
102 | FNKY | ≤ 0.25
103 | HPRW | ≤ 0.25
104 | NMWC | ≤ 0.25
105 | DCYA | ≤ 0.25
106 | AVGW | 12.2
107 | ANLL | 13.4
108 | QHSW | ≤ 0.25
109 | IMCI | ≤ 0.25
110 | AKYG | ≤ 0.25
111 | KAHS | ≤ 0.25
112 | LCQR | ≤ 0.25
113 | YGLW | ≤ 0.25
114 | VNAR | ≤ 0.25
115 | ETMH | ≤ 0.25
116 | SEYD | ≤ 0.25
117 | HYTK | ≤ 0.25
118 | RQNV | ≤ 0.25
119 | INKH | ≤ 0.25
120 | HKVP | ≤ 0.25
121 | FWKE | ≤ 0.25
122 | KMGR | ≤ 0.25
123 | WYDW | ≤ 0.25
124 | HFRS | ≤ 0.25
125 | WNER | ≤ 0.25

Row | Variant | enrichment ratio
126 | QTAG | ≤ 0.25
127 | KLID | ≤ 0.25
128 | RSAC | ≤ 0.25
129 | ALNL | 1.07
130 | NCKH | ≤ 0.25
131 | YKCA | ≤ 0.25
132 | NRWC | ≤ 0.25
133 | IIDH | ≤ 0.25
134 | VNCQ | ≤ 0.25
135 | KCFE | ≤ 0.25
136 | EPFW | ≤ 0.25
137 | SDDS | ≤ 0.25
138 | HSGQ | ≤ 0.25
139 | NSLP | ≤ 0.25
140 | HELA | ≤ 0.25
141 | DTRQ | ≤ 0.25
142 | DNYN | ≤ 0.25
143 | FPPI | ≤ 0.25
144 | WSYS | ≤ 0.25
145 | HKGK | ≤ 0.25
146 | IYNS | ≤ 0.25
147 | MNQP | ≤ 0.25
148 | STTL | 16.6
149 | NWKG | ≤ 0.25
150 | DRQR | ≤ 0.25

Row | Variant | enrichment ratio
151 | LSPE | ≤ 0.25
152 | MNLC | 11.7
153 | KYDF | ≤ 0.25
154 | KVNT | ≤ 0.25
155 | TYNS | 4.69
156 | YYPK | ≤ 0.25
157 | EHFF | 0.435
158 | QTAH | ≤ 0.25
159 | YDVA | ≤ 0.25
160 | SMTY | 5.28
161 | FCKV | ≤ 0.25
162 | FDKG | ≤ 0.25
163 | RIFP | ≤ 0.25
164 | RRAK | ≤ 0.25
165 | SMHL | ≤ 0.25
166 | QVPD | ≤ 0.25
167 | LGVK | ≤ 0.25
168 | GEVP | ≤ 0.25
169 | AECP | ≤ 0.25
170 | HDTG | ≤ 0.25
171 | PRFS | ≤ 0.25
172 | QVYH | ≤ 0.25
173 | DKIF | ≤ 0.25
174 | AKYT | 1.73
175 | VNPK | ≤ 0.25

Row | Variant | enrichment ratio
176 | FVNH | ≤ 0.25
177 | VKGP | ≤ 0.25
178 | RSWS | ≤ 0.25
179 | VQNC | ≤ 0.25
180 | AELK | 11.5
181 | EIWC | ≤ 0.25
182 | LGIM | ≤ 0.25
183 | AMIT | ≤ 0.25
184 | PDFP | ≤ 0.25
185 | FKLI | 2.7
186 | PMSF | ≤ 0.25
187 | YEYR | ≤ 0.25
188 | MPVY | ≤ 0.25
189 | PNYS | ≤ 0.25
190 | RYRG | ≤ 0.25
191 | KNHD | ≤ 0.25
192 | GEVD | ≤ 0.25
193 | NNEE | ≤ 0.25
194 | DYSM | ≤ 0.25
195 | WATL | ≤ 0.25
